“And” between values parts separate entries of the source, which are not always exact repeats. Equal entries are not always repeated. Out of some 410,000 compounds screened, about 5,000 (1.2%) were called active. Inconclusive means that the source gave no clear call. Such entries were picked first, then a sample of the others. Calls follow the shape of the dose curve; as a rule, active = well fitted inhibition curve with a large enough effect; inconclusive = small, poorly fitted or top-dose-only effect; inactive = no such curve, though single readings can be large or run the other way. Potencies beside an inconclusive call are fits to weak or partial responses and may not hold up.
Experiment: qHTS for Inhibitors of TGF-b; also: nearly all actives have a fitted effect of over 65% in size
Details: HepG2 CAGA-GFP TGF-b/SMAD3 reporter, GFP fluorescence, 18 h, TGF-beta stimulated, 500 pg/mL final; series mostly up to 46.1 µM
Procedure, shortened: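 Smad-responsive CAGA-GFP expression was quantified in HEPG2 cells exposed to compounds and 500 pg/mL final TGF-beta for 18 h at 37 degrees C; unstimulated wells defined full inhibition.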
Potency is read from the fitted curve at half-maximal effect; tags tell the direction and shape of the fitted curve.

Compound | Potency
N#Cc1cc(NC(=O)c2ccc(Cl)cc2)ccc1Sc1ccccc1 | inconclusive: 22.4 µM [inhibitor, single point]
O=P(Nc1ccccc1)(Oc1ccccc1)Oc1ccccc1 | inconclusive: 8.91 µM [inhibitor, partial curve, poor fit]
O=C(Nc1ccccc1)N1Cc2ccccc2-n2nncc2C1 | inactive
O=C(Nc1ccccc1)N(Cc1ccc2c(c1)OCO2)C1CCN(Cc2ccccc2)CC1 | inconclusive: 15.8 µM [inhibitor, single point]
COc1ccc(NC(=O)C2CCCN(S(=O)(=O)c3ccc4c(c3)oc(=O)n4C)C2)cc1OC (stereo not given) | inconclusive: 17.8 µM [inhibitor, partial curve, poor fit]
CC(NCc1ccc(Cl)c(Cl)c1)C(O)c1ccccc1 (stereo not given) | inconclusive: 3.16 µM [inhibitor, partial curve, poor fit]
O=C(Nc1ccon1)c1cccn(Cc2cccc([N+](=O)[O-])c2)c1=O | inactive
COc1cccc(NP(=O)(Oc2ccc(Cl)cc2)Oc2ccc(Cl)cc2)c1 | inconclusive: 11.2 µM [inhibitor, partial curve, poor fit]
Cc1ccc(-c2cc(-c3ccc(C)cc3)[n+](-c3ccc(C(=O)[O-])cc3)c(-c3ccc(C)cc3)c2)cc1 | inactive
CCCCC(=O)N/N=C/c1c(O)n(CCc2ccccc2)c(=O)[nH]c1=O | inconclusive: 35.5 µM [inhibitor, single point]
CN(C)c1ccc(/C=C/C=C/c2sc3ccccc3[n+]2C)cc1 | active: 8.91 µM
COc1ccc(C(c2nnnn2-c2c(C)cccc2C)N2CCC(n3c(=O)[nH]c4ccccc43)CC2)cc1 (stereo not given) | inconclusive: 12.6 µM [inhibitor, partial curve, poor fit]
c1ccc(CNc2c3c(nc4ccccc24)CCC3)cc1 | inconclusive: 35.5 µM [inhibitor, single point]
CC(N=Cc1c(O)[nH]c(=O)[nH]c1=O)c1ccccc1 (stereo not given) | inconclusive: 0.562 µM [inhibitor, full curve, poor fit]
CNCC(=O)c1ccccc1 | inconclusive: 35.5 µM [inhibitor, single point]
CCOc1ccc(-c2cc(C)[n+](CCN(CC)CC)c(-c3ccc(OCC)cc3)c2)cc1 | inconclusive: 7.94 µM [inhibitor, partial curve, poor fit]
O=c1[nH]c(=S)n(Cc2ccc(F)cc2)c(O)c1C=NCC1CCCO1 (stereo not given) | inconclusive: 6.31 µM [inhibitor, single point]
Cc1ccc(O)c(C(=O)c2cc(C(=O)NCCC(C)C)c(=O)n(CCC(C)C)c2)c1 | inconclusive: 11.2 µM [inhibitor, partial curve]
FC(F)(F)c1ccc2c(c1)ncn2C1CCN(Cc2nnnn2C2CCCCC2)CC1 | inconclusive: 35.5 µM [inhibitor, single point]
C=CCOC(=O)COc1cc(C)cc2oc(=O)c3c(c12)CCC3 | inconclusive: 3.16 µM [inhibitor, single point]

Compound | Potency
CC1=CC(O)C(O)C2(C)C1CC1OC(=O)C(O)C3C(C)C(O)C4(O)OCC13C42 (stereo not given) | inconclusive: 35.5 µM [inhibitor, single point]
Clc1cccc(N2Cc3cc(N4CCOCC4)ccc3-n3nncc3C2)c1 | inconclusive: 35.5 µM [inhibitor, partial curve, poor fit]
O=C(CN1C(=O)COc2ccccc21)N1CCC2(CC1)OCCO2 | inconclusive: 35.5 µM [inhibitor, single point]
COC(=O)C1=C(c2ccc(OC(F)(F)F)cc2)C[C@@H]2CC[C@H]1N2C(=O)NCc1cc(C)oc1C(F)(F)F | inconclusive: 35.5 µM [inhibitor, single point]
CC12CN3CC(C)(CN(C1)C31CCSCC1)C2=O | inconclusive: 6.31 µM [inhibitor, single point]
O=C(NC1CN2CCC1CC2)c1cc(Cl)c([N+](=O)[O-])c2nc[nH]c12 (stereo not given) | inconclusive: 8.91 µM [inhibitor, partial curve, poor fit]
O=C(CSC1c2ccccc2-c2ccccc21)N/N=C/c1ccccc1O | inconclusive: 15.8 µM [inhibitor, single point]
CCC1(CC)C(=O)NC(=O)N(CCc2ccccn2)C1=O | inactive
N#Cc1c(Cl)nc(Cl)c2c1CCN(Cc1ccccc1)C2 | inactive
CC(Cc1ccccc1)NCCC(c1ccccc1)c1ccccc1 (stereo not given) | inconclusive: 10 µM [inhibitor, single point]
COC(=O)c1ccccc1NC(=O)c1cccn(Cc2cccc(Cl)c2)c1=O | inconclusive: 11.2 µM [inhibitor, partial curve, poor fit]
COc1ccccc1CNc1nc(NCc2ccccc2SC)c2sccc2n1 | inconclusive: 15.8 µM [inhibitor, partial curve, poor fit]
Cc1cccc(N2C(=O)NC(=O)/C(=C\c3cnn(-c4ccccc4)c3)C2=O)c1 | inconclusive: 35.5 µM [inhibitor, single point]
O=Cc1cn(Cc2cccc(F)c2)c2ccccc12 | inconclusive: 2.82 µM [inhibitor, single point]
O=C1N[C@@H](Cc2ccccc2)C(=O)N2[C@H]3Nc4ccccc4[C@@]3([C@]34C[C@H]5C(=O)N[C@@H](Cc6ccccc6)C(=O)N5[C@H]3Nc3ccccc34)C[C@@H]12 | inconclusive: 1.41 µM [inhibitor, single point]
C[C@]12CC[C@H](O)C[C@H]1CC[C@@H]1[C@@H]2C[C@@H](O)[C@]2(C)[C@@H](C3=CC(=O)OC3)CC[C@]12O | active: 10 µM
COc1ccc(CC(=O)Nc2ccc3c(C(F)(F)F)cc(=O)oc3c2)cc1OC | inactive
CC/C(=C\C=C\[C@@H]1C=C[C@@H]2CCC[C@H]2[C@@H]1C(=O)c1ccc[nH]1)[C@@H]1O[C@@H]([C@@H](C)C(=O)O)CC[C@@H]1C | active: 11.2 µM
COc1ccc(C(=O)CC(c2ccc3c(c2)OCO3)c2c(O)c3ccccc3oc2=O)cc1OC (stereo not given) | inactive
Clc1ccc2c(c1)C(c1ccccc1Cl)=NCc1nnc(N3CCN(CCSc4ccccc4)CC3)n1-2 | inconclusive: 35.5 µM [inhibitor, single point]

Compound | Potency
O=c1c2ccccc2nc(/C=C\c2ccccc2[N+](=O)[O-])n1-c1ccccc1O | inconclusive: 22.4 µM [inhibitor, single point]
Cn1cnc([N+](=O)[O-])c1Sc1ccc([N+](=O)[O-])cc1 | inactive
OCCN1CCN(CCCN2c3ccccc3Sc3ccc(C(F)(F)F)cc32)CC1 | inconclusive: 35.5 µM [inhibitor, single point]
Cc1cccc(NC(=O)Oc2ccc(Cl)c3cccnc23)c1 | inconclusive: 5.62 µM [inhibitor, full curve]
CCOC(=O)[C@]12Cc3cc(OC)ccc3[C@H]1N(Cc1ccccc1)C(=O)c1ccccc12 | inconclusive: 31.6 µM [inhibitor, single point] and inconclusive: 35.5 µM [inhibitor, partial curve, poor fit]
O=C(NCC1=C(c2cccc3ccccc23)C[C@@H]2CC[C@H]1N2Cc1ccco1)c1cccs1 | inconclusive: 28.2 µM [inhibitor, partial curve, poor fit]
Cc1cc(OCC(=O)N[C@H](C(=O)O)c2ccccc2)c2c3c(c(=O)oc2c1)CCC3 | inconclusive: 4.47 µM [inhibitor, single point]
O=C(Nc1ccc2ccccc2c1)N1C[C@H]2C[C@@H](C1)c1cccc(=O)n1C2 | inactive
C=C1[C@@H](C)[C@H]2[C@H](Cc3ccccc3)NC(=O)[C@]23OC(=O)/C=C/[C@H](O)CCC[C@@H](C)C/C=C/[C@H]3[C@@H]1O | inconclusive: 1.12 µM [inhibitor, partial curve, poor fit]
Cc1cccc(Cn2cccc(C(=O)Nc3nnc(C)s3)c2=O)c1 | inconclusive: 5.62 µM [inhibitor, single point]
COc1cccc(C(c2nnnn2C2CCCC2)N2CCC3(CC2)C(=O)NCN3c2ccccc2)c1OC (stereo not given) | inconclusive: 25.1 µM [inhibitor, single point]
CN1CCc2nc(SCc3cccc(Br)c3)c(C#N)cc2C1 | inactive
CCOC(=O)C1=C(C)OC(N)=C(C(=O)OCC)[C@@]12C(=O)N(CC(N)=O)c1ccccc12 | inactive
CCOC(=O)c1c(NC(NC(=O)CF)C(Cl)(Cl)Cl)sc2c1CCCC2 (stereo not given) | inconclusive: 35.5 µM [inhibitor, single point]
O=C(c1ccc(Cl)cc1)C1CCCN(Cc2cccn2-c2cccnc2)C1 (stereo not given) | inconclusive: 35.5 µM [inhibitor, single point]
CCOP(=O)(OCC)c1nc(-c2ccc(Br)cc2)oc1N1CCCCC1 | inconclusive: 35.5 µM [inhibitor, single point]
Cc1ccc(-c2nc(CN3C(=O)CN=C(c4ccccc4Cl)c4cc(Cl)ccc43)c(C)o2)cc1 | inconclusive: 35.5 µM [inhibitor, single point]
CC(C)c1ccc(C(=O)N2CCCC(c3cc(C(=O)Nc4ccccc4Cl)no3)C2)cc1 (stereo not given) | inconclusive: 22.4 µM [inhibitor, single point]
Cc1cccc(C)c1NC(=O)CN(C)CC(=O)Nc1ccc(C#N)c(Cl)c1 | inactive
Cc1cc(C)cc(N2C(=O)NC(=O)/C(=C\C=C\c3ccco3)C2=O)c1 | inconclusive: 7.94 µM [inhibitor, partial curve, poor fit]
